The campaign covered roughly 360,000 compounds. About 2,600 (0.72%) were called active. Inconclusive results, whose numbers are uncertain, are shown with a selection of clear calls. Calls come from the whole dose curve; as a rule, active = well fitted inhibition curve with a large enough effect; inconclusive = small, poorly fitted or top-dose-only effect; inactive = no such curve, though single readings can be large or run the other way. A potency beside an inconclusive call is a rough fit, not a confirmed value.
assay: Primary qHTS for Inhibitors of ATXN expression; conditions: HEK-293 ATXN2-luciferase reporter, luminescence, 24 h; activity change, negative = inhibition: at 57 µM (top of the series); note: nearly all actives have a fitted effect of over 55% in size
Procedure, shortened: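 ATXN2-luciferase reporter cells (luciferase flanked by upstream and downstream ATXN2 gene portions) were treated 24 h at 37 °C with compounds at up to 57 uM. SteadyGlo luminescence gave expression; GF-AFC fluorescence gave viability.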
% is set by controls: 0 for no effect and ±100 for the full control effect; potency is the fitted concentration of half-maximal effect; tags give direction and shape of the fitted curve.

Potency, active:
COc1ccccc1N1CCN(C(=O)c2cc3c(C)nc4ccccc4c3o2)CC1 20 µM

Potency, inconclusive:
C[C@H](NC(=O)c1nc[nH]c1C(=O)NCc1ccc(CNC(=O)OC(C)(C)C)cc1)C(=O)OC(C)(C)C 35.5 µM [inhibitor, single point], Cn1cc(C(=O)c2ccc(Cl)cc2Cl)cc1C(=O)N/N=C(\N)COc1ccc(Cl)cc1 39.8 µM [inhibitor, single point], CCC(=O)N1Cc2cc(C(=O)Nc3nccs3)nc(-c3cccc(-c4ccccc4OC)c3)c2[C@@H]1CCO 31.6 µM [inhibitor, single point], CN(C)C(=S)NC(=O)C12CC3CC(C)(CC(C)(C3)C1)C2 35.5 µM [inhibitor, partial curve, poor fit], Cc1sc2nc(CN3CCCC3)nc(N3CCC(C(N)=O)CC3)c2c1C 39.8 µM [inhibitor, single point], O=C(O)c1ccc(S(=O)(=O)c2ccc([N+](=O)[O-])cc2[N+](=O)[O-])cc1 39.8 µM [inhibitor, single point], C#Cc1cccc(Nc2nc(NCCOC)nc3ccsc23)c1 22.4 µM [inhibitor, partial curve, poor fit], COc1cc(Cl)ccc1NC(=S)N(CCCN1CCOCC1)Cc1cn(C)c2ccccc12 13.4 µM [inhibitor, partial curve, poor fit], O=C(CC1(O)C(=O)N(Cc2ccccc2)c2ccc(Br)cc21)c1ccccc1 (centres undefined) 35.5 µM [inhibitor, single point], O=C(/C=C/c1cccnc1)c1cccc(O)c1 26.7 µM [inhibitor, partial curve, poor fit], CCOC(=O)c1c(NC(=O)C(C)N2CCN(C(=O)c3ccco3)CC2)sc2c1CCCC2 (centres undefined) 12.6 µM [inhibitor, partial curve, poor fit], COc1cccc(Cl)c1NC(=O)N1CCc2c([nH]c3ccccc23)C1C(F)(F)F (centres undefined) 39.8 µM [inhibitor, single point], CC1C/C(=C\c2cccnc2)C(=O)/C(=C/c2cccnc2)C1 (centres undefined) 11.2 µM [inhibitor, partial curve, poor fit], C[C@@H]1CNC(=O)c2c(C(=O)Nc3ccc(CNC(=O)OC(C)(C)C)cc3)ncn21 39.8 µM [inhibitor, single point], COc1cc(Cl)ccc1OCc1cc(C(=O)NC2CCc3ccccc32)no1 (centres undefined) 39.8 µM [inhibitor, single point], Cc1cc(N/N=C/c2cccc(Cl)c2)nc(NCc2ccccc2)n1 8.91 µM [inhibitor, partial curve, poor fit], COc1cccc(CNCCSc2nnnn2C)c1OCc1ccc(Cl)cc1 7.08 µM [inhibitor, single point], CCCN(CCC)CCCNC(=O)c1cn(CC)c2ccc(S(=O)(=O)N3CCc4ccccc4C3)cc2c1=O 22.4 µM [inhibitor, single point], NC1=NC(=O)/C(=C/c2ccccc2OCC(=O)Nc2ccc(F)cc2)S1 0.891 µM [inhibitor, partial curve, poor fit], CN(C)CCCN1c2ccc([N+](=O)[O-])cc2CCc2cc([N+](=O)[O-])ccc21 20 µM [inhibitor, partial curve, poor fit], COc1ccc(CNC(=O)[C@@H]2CC=C[C@@H]3CCN(Cc4ccc(Cl)c(Cl)c4)C(=O)[C@@H]32)cc1 39.8 µM [inhibitor, single point], CC(=NNC(=O)c1ccccc1N)c1ccccc1O 10 µM [inhibitor, partial curve, poor fit], COC(=O)[C@]12CCCCC=C1N(Cc1cccc3ccccc13)C(=O)[C@H](CC(=O)NCc1cccs1)C2 39.8 µM [inhibitor, single point], Cc1ccc(OCC(=O)Nc2ccc(S(=O)(=O)N(Cc3ccccc3)c3ccccc3)cc2)cc1 31.6 µM [inhibitor, single point], O=C(COc1cccc(Cl)c1)Nc1nc(-c2ccc(S(=O)(=O)N3CCOCC3)cc2)cs1 3.55 µM [inhibitor, partial curve, poor fit], COc1cccc(-n2nnnc2SCC(=O)Nc2ccc3c(c2)OCCO3)c1 28.2 µM [inhibitor, partial curve, poor fit], CCOC(=O)CNC(c1ccccc1)c1cc(Br)ccc1NC(C)=O (centres undefined) 14.1 µM [inhibitor, partial curve, poor fit], CC(C)C1N=C(c2ccc3c(c2)OCO3)CC(c2ccccc2O)N1 (centres undefined) 39.8 µM [inhibitor, single point], CCOC(=O)c1cnc2ccc(OC)cc2c1Nc1ccc(N2CCN(C)CC2)cc1 25.1 µM [inhibitor, partial curve, poor fit]

Activity change, negative = inhibition, inactive:
Cc1ccc(S(=O)(=O)n2nc(OC(=O)c3c(-c4ccccc4Cl)noc3C)cc2N)cc1 -6.1%, O=C(CCc1nnc2n(Cc3ccc(Cl)cc3)c(=O)c3ccccc3n12)NCCCN1CCOCC1 2.91%, COC(=O)c1ccccc1Nc1ccccc1 -4.59%, CC1(C)CC(=O)c2cc(OCC(=O)NCCCN3CCN(c4ccccc4F)CC3)ccc2O1 -7.43%, Cc1[nH]n(-c2ccccc2)c(=O)c1C(c1ccc(O)c([N+](=O)[O-])c1)c1c(C)[nH]n(-c2ccccc2)c1=O -2.43%, Oc1ccc(N=Nc2n[nH]c(-c3ccccc3)n2)cc1 20.6%, CC(SCc1ccccc1)C(=O)NN=C1CCN(C)CC1 (centres undefined) 6.81%, CC(Sc1ncccn1)C(=O)NNC(=O)c1cccc(Cl)c1 (centres undefined) -13.8%, O=S(=O)(c1ccccc1)N1CCN(C(=S)Nc2ccc(Br)cc2)CC1 -20.7%

Source: PubChem BioAssay AID1745845 (National Center for Advancing Translational Sciences (NCATS), 2022)
